# Measured values as given in paper PMC6919601, “Identification of Plasmodium dipeptidyl aminopeptidase allosteric inhibitors by high throughput screening” (PLoS ONE, 2019).
# The whole screen tested about 110,000 compounds, of which about 230 (0.21%) showed an effect of 50% or more. The list shows a part of the results.
# Target: DPAP1 (Plasmodium falciparum, UniProt Q8IIJ9)
# Assay: primary screen, percent inhibition; read by cleavage of a fluorogenic dipeptide substrate; higher = more effect of the substance
# Parameters: species or system P. falciparum D10 trophozoite lysates; single well
# 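Also: 30 min substrate incubation versus DMSO and 10 µM JCP410 controls.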
# Sequence of DPAP1 (Q8IIJ9 whole entry, looked up): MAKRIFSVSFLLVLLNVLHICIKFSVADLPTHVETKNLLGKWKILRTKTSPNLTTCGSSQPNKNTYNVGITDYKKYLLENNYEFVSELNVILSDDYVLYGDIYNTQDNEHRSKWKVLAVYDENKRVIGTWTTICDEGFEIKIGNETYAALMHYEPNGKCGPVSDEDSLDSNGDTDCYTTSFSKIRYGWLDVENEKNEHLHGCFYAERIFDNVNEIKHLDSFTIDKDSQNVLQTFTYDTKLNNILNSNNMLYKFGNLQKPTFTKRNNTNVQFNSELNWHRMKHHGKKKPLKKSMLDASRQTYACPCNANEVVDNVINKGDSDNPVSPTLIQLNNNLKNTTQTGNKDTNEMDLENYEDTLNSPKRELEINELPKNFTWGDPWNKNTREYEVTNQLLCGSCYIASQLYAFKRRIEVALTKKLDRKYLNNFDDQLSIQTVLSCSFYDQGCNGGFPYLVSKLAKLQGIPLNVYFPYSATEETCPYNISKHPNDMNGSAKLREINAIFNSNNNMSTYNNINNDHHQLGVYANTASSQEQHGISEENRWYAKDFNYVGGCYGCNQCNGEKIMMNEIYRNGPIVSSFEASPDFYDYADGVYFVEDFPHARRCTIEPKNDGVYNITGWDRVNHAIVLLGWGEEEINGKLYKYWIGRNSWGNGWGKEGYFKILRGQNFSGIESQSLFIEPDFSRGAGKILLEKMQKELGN
row,Compound,% Inhibition @ 10 uM [%]
1,Cc1ccc2c(c1)-c1c(cnn1CC(=O)Nc1ncccc1C)CO2,-7.13
2,O=C(Nc1nc(-c2ccccc2)cs1)c1cc2ccccc2oc1=O,0.219
3,CCCC(=O)NC(C)Cc1c[nH]c2ccccc12 (stereo not shown),9.65
4,Cc1c(C(=O)N2CC(C)CC(C)C2)oc2ccc(S(=O)(=O)N3CCC4(CC3)OCCO4)cc12 (stereo not shown),11.5
5,Cn1c(=O)c2c(-c3ccccc3Cl)n(Cc3ccccc3)cc2n(C)c1=O,-3.12
6,Cc1ccc(CCn2c(C)c(CC#N)c3ccccc32)cn1,-0.744
7,Cc1cc(C)c2c(n1)nn1c(C)c(CCC(=O)NCc3cccnc3)c(C)nc21,-6.33
8,CC(C)(C)c1ccc(C2=NC3(CCN(C(=O)c4ccc(F)cc4)CC3)NC2=O)cc1,-2.98
9,CCC(C)C(NC(=O)C1CCC(C)CC1)C(=O)NCCCN1CCCCC1CC (stereo not shown),2.64
10,CCOC(=O)C1=C(c2ccccc2)Nc2ncnn2C1c1cccc(O)c1 (stereo not shown),3.8
11,CCCN1C(=O)S/C(=C\c2ccc(Cl)cc2)C1=O,-2.37
12,Cc1ccc2nc(NCc3ccco3)c(/C=C3\SC(=S)NC3=O)c(=O)n2c1,-3.14
13,Cc1c(C(c2ccc(-c3ccc(Br)cc3)o2)c2c(C)n(C)n(-c3ccccc3)c2=O)c(=O)n(-c2ccccc2)n1C,0.215
14,Cn1cc(Br)c(C(=O)N2CCc3ccccc32)n1,-0.864
15,Cc1[nH]c2ccccc2c1CN1CCc2ccccc2C1,-0.127
16,O=C1CC(c2ccccc2C(F)(F)F)C2=C(CC(c3ccccc3Cl)CC2=O)N1 (stereo not shown),4.23
17,O=C(O)Cn1cnc2scc(-c3ccc(Br)cc3)c2c1=O,-7.3
18,CCOC(=O)c1c(C)[nH]c(C)c1S(=O)(=O)NC(C)CCc1ccccc1 (stereo not shown),-4.21
19,CC(C)CC(=O)NC1(C(F)(F)F)C(=O)Nc2c1c(=O)n(C)c(=O)n2C (stereo not shown),9.28
20,Cc1ccc2oc(C(=O)Nc3nnc(C)s3)cc(=O)c2c1,1.9
21,CN(CCc1ccccn1)Cc1ccc(F)cc1,1.29
22,COc1ccccc1C(=O)Nc1cccc(SC)c1,1.43
23,N#CC1(NC(=O)[C@@H]2CCCC[C@@H]2CSc2ccc(F)cc2)CC1,1.7
24,COc1cc(C2=NOC(C(=O)NC(C)c3ccccc3)C2)cc(OC)c1OC (stereo not shown),4.41
25,CCCN(CCO)Cc1ccc(C(C)C)cc1,-9.33

row,Compound,% Inhibition @ 10 uM [%]
1,CO/C(O)=C1\C(C)=NC2=C(C(=O)CCC2)C1c1cccc(Cl)c1 (stereo not shown),-1.82
2,CSc1cccc(-n2nnc(-c3nsc(NC(=O)c4cccc(Cl)c4)n3)c2C)c1,0.399
3,COc1ccccc1-c1nnc2sc(COc3cccc(C)c3)nn12,-0.45
4,O=C(NCCN1CCOCC1)c1cc(Sc2ccccc2Cl)nc2ccccc12,10.3
5,Cc1nc(O)c2c(n1)OC(N)=C(C#N)C2c1ccc(Cl)cc1Cl (stereo not shown),-0.631
6,COc1cc(NC(=O)CCc2ccccc2)nc(OC)n1,-1.03
7,O=C(Nc1ccc(O)cc1)C1Cc2ccccc2CN1S(=O)(=O)c1cccs1 (stereo not shown),3.17
8,COCc1cc(C)nc(SCC(=O)Nc2ccc(Br)cc2)c1C#N,4.33
9,CCOc1ccccc1C1N(c2nccs2)C(=O)C2CCCN21 (stereo not shown),-6.06
10,O=C(O)c1ccc(CNCc2cccc(Cl)c2)s1,2.65
11,COc1ccc(OC)c(C2CC(=O)N=C(NC(=O)c3ccc(Oc4ccccc4)cc3)N2)c1 (stereo not shown),-2.44
12,CC(C(=O)NCCN1CCOCC1)n1c2ccccc2c2cnnc(O)c21 (stereo not shown),4.36
13,Cc1ccn2c(NC(=O)CC(C)(C)C)c(-c3ccccc3)nc2c1,5.4
14,CC(C)N1C(=O)CCC1C(=O)NCCc1ccccc1 (stereo not shown),-1.34
15,CCOc1cc(C2NCCc3c2[nH]c2ccccc32)ccc1O (stereo not shown),2.41
16,CC1=CC(C)C(CNCc2ccco2)C(C)C1 (stereo not shown),2.62
17,COc1ccc2c(CNC3CCCCCC3)c(C(=O)O)n(C)c2c1,-0.677
18,CCOC(=O)c1[nH]c2ccccc2c1NC(=O)CC(C)(C)C,-2.74
19,CN(C)c1nc(NC(C)(C)C)nc(Oc2ccc(=O)n(C)n2)n1,-1.31
20,OCC1CCCN(CC2CC3C=CC2C3)C1 (stereo not shown),5.01
21,Cn1cc(C(=O)C(=O)NCCOc2ccccc2Cl)c2ccccc21,2.99
22,OCC1CCCN(Cc2cccc(Cl)c2)C1 (stereo not shown),5.03
23,Oc1ccc(-c2csc(-c3c[nH]c4ccccc34)n2)cc1O,3.47
24,CCC(=O)N1N=C(c2ccccc2)CC1c1ccc(Br)cc1 (stereo not shown),-2.6
25,CCC[C@@H](/C=C/S(=O)(=O)c1ccccc1)NC(=O)[C@H](CSCc1ccccn1)NC1=NS(=O)(=O)c2ccccc21,-3.34

row,Compound,% Inhibition @ 10 uM [%]
1,Cc1ccc(-n2nc(C)c3c(C(F)(F)F)cc(=O)n(CC(=O)NCc4ccccc4)c32)cc1,1.63
2,CCCN1CCC(N(CC)CCN(C)C)CC1,-1.82
3,O=C1OC2(CCCC2)OC(=O)C1=Cc1ccc(OCc2ccccc2F)cc1,-2.5
4,Cc1nc2ccc(S(=O)(=O)NC(C(=O)NCc3ccc(F)cc3)C(C)C)cc2s1 (stereo not shown),-9.31
5,CCOC(=O)N1CCN(c2c(NCc3ccccc3OC)c(=O)c2=O)CC1,3.54
6,Cc1ccc(CS(=O)Cc2ccc(C(=O)NC(C)C34CC5CC(CC(C5)C3)C4)o2)cc1 (stereo not shown),3.24
7,COc1ccc(Cl)cc1C(=O)Nc1cc(Cl)ccc1C(=O)O,-5.26
8,Sc1nnc(CN2CCSCC2)n1-c1ccc(Cl)cc1,4.84
9,CCOC(=O)c1cc(C)n(CC2CCC(C(=O)NC3CCCCCC3)CC2)c1C (stereo not shown),-0.943
10,O=C(Cc1cccc2ccccc12)Nc1nc(-c2ccc(S(=O)(=O)N3CCOCC3)cc2)cs1,5.26
11,CN(C)CCNC(=O)c1nc(CS(=O)(=O)c2ccccc2)no1,-3.07
12,Cc1ccc(N2C(N)=C(C#N)C(c3cc(Br)cs3)C3=C2CCCC3=O)cc1 (stereo not shown),2.44
13,Clc1ccc(Cn2cnc3ccccc32)cc1Cl,-1.59
14,Cc1ccc(C#N)c(SCC(=O)N(c2ccccc2)c2ccccc2)n1,0.674
15,COc1ccccc1C(=O)N/C(=C/c1ccc(F)cc1)C(=O)Nc1cccc(C(=O)O)c1,-0.981
16,COc1cc(/C=C2\S/C(=N/c3ccc(Cl)cc3)N(C)C2=O)cc(OC)c1O,13.6
17,Cc1ccc2nc3c(O)n(CC(=O)NCCCN4CCc5ccccc5C4)ncc-3c2c1,1.92
18,COC(=O)CCS(=O)(=O)c1cc(Cl)ccc1Cl,4.12
19,COc1ccc(-c2cn3c4c(=O)n(C)c(=O)n(C)c4nc3n2-c2cccc3c2OCCO3)cc1,-0.994
20,CCn1cc(Br)c(C(=O)Nc2cccc(C(F)(F)F)c2)n1,1.62
21,O=C1NCC(=O)N2CCc3ccccc3C12 (stereo not shown),-0.261
22,O=C1C(Cc2ccccc2)=C(O)OC2C=CC=CC12 (stereo not shown),-1.85
23,O=[N+]([O-])c1c(NCCO)ccc2nonc12,-0.807
24,CCN1CCC(N2CCN(c3ccc([N+](=O)[O-])cc3)CC2)CC1,1.57
25,COc1ccc(-n2nc3ccc(NC(=O)COc4ccccc4Cl)cc3n2)cc1,14.2

row,Compound,% Inhibition @ 10 uM [%]
1,CC(C)(C)NC(=O)CN(c1cccc(Br)c1)S(C)(=O)=O,-5.19
2,CC1CCCCN1CCNC(=O)c1cnn2c(C(F)(F)F)cc(-c3ccccc3)nc12 (stereo not shown),-5.92
3,COc1ccc2c(COc3ccc4c(=O)c(-c5ccccc5)coc4c3)cc(=O)oc2c1,-2.91
4,COc1ccccc1/C=C(\C#N)c1nc(-c2ccc(Cl)c(Cl)c2)cs1,2.6
5,CCOc1ccc(C2C3=C(CC(C)(C)CC3=O)N(CC(=O)O)C3=C2C(=O)CC(C)(C)C3)cc1Cl,-0.318
6,CCc1ccc(C2CC(=O)c3c([nH]c(C(=O)OC)c3C)C2)cc1 (stereo not shown),2.35
7,O=C(CSc1nc2cccnc2[nH]1)NCc1ccco1,3.95
8,Cn1c(=O)c2c(nc(NCCCO)n2Cc2cccc3ccccc23)n(C)c1=O,4.67
9,O=C(NCc1ccco1)c1ccc(CNS(=O)(=O)c2cccc(C(F)(F)F)c2)cc1,-0.055
10,CC(=O)c1ccc(N2C(=O)c3cc(Cl)c(Cl)cc3C2=O)cc1,-7.32
11,O=C(NCC12C=CC(O1)C1C(=O)N(c3ccccc3)C(=O)C12)c1ccco1 (stereo not shown),32.4
12,COc1ccc(CCC(C)(C)CC(=O)O)cc1,-1.78
13,Cc1ccc(-n2nc3c(=O)n(CCCC(=O)N4CCC(N5CCCCC5)CC4)nc(C)c3c2C)cc1,-0.307
14,CCCCN(C)CCCNC(=O)Cn1cc2c(n1)-c1c(oc(C(=O)N3CCCC3)c1C)CC2,2.54
15,O=C(Nc1ccc(N2CCN(Cc3ccccc3)CC2)cc1)c1cccnc1Cl,7.02
16,COc1cccc(C(=O)Nc2cccc(C(F)(F)F)c2)c1,0.0504
17,Cc1ccc(C)c(Cn2nc(-c3ccccc3)ccc2=O)c1,-0.946
18,CN1C(N)=NC(=O)/C1=C/c1ccc(OCc2ccccc2)cc1,4.18
19,CC[C@@H](C)[C@H](NC(=O)Cc1cccc([N+](=O)[O-])c1)C(=O)N[C@@H](CCc1ccccc1)C(=O)COCc1ccccc1,-7.36
20,O=C(Nc1cnn(Cc2ccc(F)cc2)c1)c1cc2n(n1)C(C(F)(F)F)CC(c1ccco1)N2 (stereo not shown),7.16
21,CCN(Cc1ccccc1)c1nc2c(S(=O)(=O)c3ccccc3)nnn2c2ccccc12,-8.58
22,COc1ccc(-c2cc(C(=O)N3CCCCC3C)[nH]n2)cc1 (stereo not shown),3.75
